# The supplement of paper PMC3334620
# The full ranking holds about 33,000 sequences; the median of “E-score (-0.5 to 0.5)” is about -0.056, and the highest 2% start at about 0.38. The list shows a part of the results.
# Biological target: Stb4 (UniProt P50104)
# Experiment: PBM E-score (8-mer binding enrichment) (E-score (-0.5 to 0.5)); higher = stronger / more preferred TF binding; most listed sequences are background and not binding sites
# Conditions: protein concentration: 200 nM; construct: GST-DNA-binding domain
# In short: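 GST-tagged yeast TFs (full-length or DNA-binding domain) were made by PURExpress in vitro transcription/translation and applied at about 100-200 nM to universal all-10-mer Agilent arrays. The arrays were made double-stranded by primer extension, on fresh or once-stripped slides. Bound protein was detected with fluorescent anti-GST, and scans were normalised with masliner. Each ungapped eight-base word, pooled with its reverse complement, received an E-score (modified Wilcoxon-Mann-Whitney statistic) from the Universal PBM Analysis Suite.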
row,Sequence,PBM E-score
1,CCCCGCTA,0.126
2,GGTCGTTA,-0.108
3,ATGTTGCA,-0.216
4,AAAGGTCA,-0.138
5,GTGCCACA,-0.103
6,AGCGACGA,-0.265
7,TACCATAA,-0.0955
8,GGGACGAC,-0.0514
9,TACAATAA,-0.141
10,CGTTAAAA,-0.106
11,CGGGTAAG,0.336
12,ACTATCCC,-0.044
13,GGAACACA,0.0485
14,ACCCCCGG,0.209
15,AAGAGCGC,-0.202
16,CGGCCGTC,0.0972
17,CATCCGAA,0.476
18,CACTGCCC,-0.0371
19,AGGCGGCG,-0.0568
20,AAAGCGGA,0.242
21,CATGGAGC,-0.231
22,GCCGTATA,0.107

row,Sequence,PBM E-score
1,GCACCTCC,0.0311
2,CTTGGAGC,-0.228
3,CCGCATAA,0.288
4,CCAAGAAG,-0.106
5,CTTTCGTC,-0.0646
6,AAATCTTA,-0.0414
7,CTGACATA,-0.126
8,ACTATTCG,-0.0568
9,CGGCACTA,0.331
10,AGATGCGC,-0.0689
11,ACAGTAGC,-0.114
12,GATTGCAA,0.0448
13,CGAACTAC,0.2
14,ACTATAAC,-0.201
15,AGAGGTCC,0.0132
16,CTGAGAGC,-0.138
17,ACGTAGAC,-0.197
18,GCCGACGA,0.285
19,CGATTCGC,0.0552
20,GACGAGAA,-0.169
21,GGCGCACA,0.0503
22,AGAAAAGC,-0.141

row,Sequence,PBM E-score
1,CGTAAAGC,-0.31
2,TAATATCA,-0.159
3,ATCTTACA,-0.15
4,CTCATCCA,-0.204
5,TTGGGAAA,-0.079
6,CCCGGTAG,0.254
7,ACCGAGCC,0.356
8,CCAATCGG,0.18
9,TACTAGGA,-0.0288
10,AGGACACT,-0.176
11,ATCATTCA,-0.0577
12,CGATTAGC,0.111
13,AACGGATC,0.306
14,CGCTAGAG,-0.165
15,CTTCAGGC,-0.132
16,GTGTAAGA,-0.221
17,GGAACGAA,0.161
18,ACCCCTTA,-0.186
19,CTAGAGAG,-0.221
20,CTACCGTC,0.0657
21,GAGGTGTA,0.00625
22,CAAGGGTG,-0.186

row,Sequence,PBM E-score
1,CGGGTTAC,0.205
2,ACTTTGCT,-0.0436
3,GCGGATTA,0.0668
4,TAAGGTAA,-0.0267
5,GCTGCAGC,0.0465
6,GCCTTTAA,-0.0779
7,AATTCGGC,0.357
8,CGTCATAC,-0.02
9,GAGAGAGA,-0.0487
10,GCTTCGAA,-0.121
11,CTGCGCGA,-0.106
12,ATATGTGG,-0.272
13,AGACAACT,-0.256
14,AGTTCCCC,0.138
15,AAAGCATC,0.174
16,TACTCGAA,-0.25
17,AAGTAAGG,-0.0235
18,ATGGGGAA,-0.0799
19,GTGATCAC,0.176
20,AATCGACC,0.0569
